Assay results published in the supplement of paper PMC4604168 (melanoma cell lines).
The list shows a part of the results. Most values come without repeats; read them as rough.

Tests used:
Assay in all cases: cell count relative to DMSO control; melanoma cells; higher = more viable cells
Conditions in all cases: library dose: standard library concentration; 72 h
501Mel = system: 501Mel
A101D = system: A101D
A2058 = system: A2058
A375 = system: A375
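Also: cells treated in 1,536-well plates, then fixed and DAPI-stained, with nuclei counted from automated high-throughput microscope images.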

SMILES	cell count (501Mel) [%]	cell count (A101D) [%]	cell count (A2058) [%]	cell count (A375) [%]
Cc1ccc(Nc2nccc(N(C)c3ccc4c(C)n(C)nc4c3)n2)cc1S(N)(=O)=O [Pazopanib] + O=C1NC(=O)/C(=C/c2ccc(-c3ccc(F)cc3O)o2)S1 [AS252424] (first compound 2 µM, partner dose 5 µM)	100	85.8	83.3	106
O=C(/C=C/c1cccnc1)NCCCCC1CCN(C(=O)c2ccccc2)CC1 + Oc1nc(-c2ccc(C(F)(F)F)cc2)nc2c1CSCC2 [XAV939] (first compound 0.05 µM, partner dose 10 µM)	103	70.7	84.5	138
Cc1ccc(Nc2nccc(N(C)c3ccc4c(C)n(C)nc4c3)n2)cc1S(N)(=O)=O [Pazopanib] + CCc1ccc(CCOc2ccc(CC3SC(=O)NC3=O)cc2)nc1 [pioglitazone] (first compound 2 µM, partner dose 10 µM)	69.6	89.9	103	104
Cc1ccc(Nc2nccc(N(C)c3ccc4c(C)n(C)nc4c3)n2)cc1S(N)(=O)=O [Pazopanib] + O=S(=O)(c1ccccc1)N(CC(F)(F)F)c1ccc(C(O)(C(F)(F)F)C(F)(F)F)cc1 [T0901317] (first compound 2 µM, partner dose 7 µM)	55.1	82.7	95.5	110
O=C(/C=C/c1cccnc1)NCCCCC1CCN(C(=O)c2ccccc2)CC1 + COc1cc2ncnc(Nc3ccc(Oc4ccccc4)cc3)c2cc1OC [SrcI1] (first compound 0.05 µM, partner dose 10 µM)	62	63	98.3	149
O=C(/C=C/c1cccnc1)NCCCCC1CCN(C(=O)c2ccccc2)CC1 + COc1cc(N2CCC(N3CCN(C)CC3)CC2)ccc1Nc1ncc(Cl)c(Nc2ccccc2S(=O)(=O)C(C)C)n1 [NVP-TAE684] (first compound 0.05 µM, partner dose 0.4 µM)	68.3	78.1	81.2	129
CC1(C)CCC(c2ccc(Cl)cc2)=C(CN2CCN(c3ccc(C(=O)NS(=O)(=O)c4ccc(N[C@H](CCN5CCOCC5)CSc5ccccc5)c(S(=O)(=O)C(F)(F)F)c4)cc3)CC2)C1 + COc1cc(N2CCC(N3CCN(C)CC3)CC2)ccc1Nc1ncc(Cl)c(Nc2ccccc2S(=O)(=O)C(C)C)n1 [NVP-TAE684] (first compound 2 µM, partner dose 0.4 µM)	71.5	28.5	42.3	54.5
CC1(C)CCC(c2ccc(Cl)cc2)=C(CN2CCN(c3ccc(C(=O)NS(=O)(=O)c4ccc(N[C@H](CCN5CCOCC5)CSc5ccccc5)c(S(=O)(=O)C(F)(F)F)c4)cc3)CC2)C1 + COc1cc2ncnc(Nc3ccc(Oc4ccccc4)cc3)c2cc1OC [SrcI1] (first compound 2 µM, partner dose 10 µM)	74	41.4	92.4	68.2
Cc1ccc(Nc2nccc(N(C)c3ccc4c(C)n(C)nc4c3)n2)cc1S(N)(=O)=O [Pazopanib] + COc1ccc(-c2ccc3c(N4CCOCC4)nc(N4C[C@@H](C)O[C@@H](C)C4)nc3n2)cc1CO [KU0063794] (first compound 2 µM, partner dose 0.1 µM)	83.3	77.9	76.7	92.5
Cc1ccc(Nc2nccc(N(C)c3ccc4c(C)n(C)nc4c3)n2)cc1S(N)(=O)=O [Pazopanib] + O=C(Nc1ccccc1)c1cc([N+](=O)[O-])ccc1Cl [GW9662] (first compound 2 µM, partner dose 10 µM)	56.4	65.5	95.4	107
O=C(/C=C/c1cccnc1)NCCCCC1CCN(C(=O)c2ccccc2)CC1 + O=C1NC(=O)/C(=C/c2ccc(-c3ccc(F)cc3O)o2)S1 [AS252424] (first compound 0.05 µM, partner dose 5 µM)	63.3	109	94.7	120
Cc1ccc(Nc2nccc(N(C)c3ccc4c(C)n(C)nc4c3)n2)cc1S(N)(=O)=O [Pazopanib] + COC(=O)c1sccc1S(=O)(=O)Nc1ccc(Nc2ccccc2)cc1OC [GSK0660] (first compound 2 µM, partner dose 5 µM)	89.2	92.1	77.9	84.1
CC1(C)CCC(c2ccc(Cl)cc2)=C(CN2CCN(c3ccc(C(=O)NS(=O)(=O)c4ccc(N[C@H](CCN5CCOCC5)CSc5ccccc5)c(S(=O)(=O)C(F)(F)F)c4)cc3)CC2)C1 + O=S(=O)(c1ccccc1)N(CC(F)(F)F)c1ccc(C(O)(C(F)(F)F)C(F)(F)F)cc1 [T0901317] (first compound 2 µM, partner dose 7 µM)	52.3	36.2	90.3	50.1
